Data published in the supplement of paper PMC4604168 (melanoma cell lines).
Some of the results follow. Repeats are few or missing, and single values can be far off.

Experiments:
Assay in all cases: cell count relative to DMSO control; melanoma cells; higher = more viable cells
Conditions in all cases: library dose: standard library concentration; 72 h
SkMel28 = tested on: SkMel28
SkMel2 = tested on: SkMel2
SkMel30 = tested on: SkMel30
SkMel5 = tested on: SkMel5
UACC257 = tested on: UACC257
UACC62 = tested on: UACC62
WM115 = tested on: WM115
WM1716 = tested on: WM1716
WM1745 = tested on: WM1745
WM3526 = tested on: WM3526
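Also: cells treated in 1,536-well plates, then fixed and DAPI-stained, with nuclei counted from automated high-throughput microscope images.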

SMILES | cell count (SkMel28) [%] | cell count (SkMel2) [%] | cell count (SkMel30) [%] | cell count (SkMel5) [%] | cell count (UACC257) [%] | cell count (UACC62) [%] | cell count (WM115) [%] | cell count (WM1716) [%] | cell count (WM1745) [%] | cell count (WM3526) [%]
Cc1cc(N2CCOCC2)cc2[nH]c(-c3c(NC[C@@H](O)c4cccc(Cl)c4)cc[nH]c3=O)nc12 + COc1ccc2c(c1)CCC1C2CCC2(C)C(NCCCCCCN3C(=O)C=CC3=O)CCC12 [U73122] (first compound 1 µM, partner dose 2 µM) | 71.6 | 83.8 | 60.7 | 70.7 | 83.6 | 61.9 | 79.7 | 92.8 | 63.2 | 82.5
O=C(Nc1cc(C(F)(F)F)cc(C(F)(F)F)c1)c1cc(Cl)ccc1O + Cn1sc(=O)n(Cc2ccccc2)c1=O [TDZD-8] (first compound 0.08 µM, partner dose 2 µM) | 91.9 | 103 | 85.4 | 80.7 | 91 | 68.8 | 91.8 | 114 | 94.1 | 99.1
O=C(O)[C@@H]1[O][Sb](=[O])([O][Sb]2(=[O])[O][C@H]([C@H](O)CO)[C@H](O)[C@H](C(=O)O)[O]2)[O][C@H]([C@H](O)CO)[C@@H]1O (stereo not given in full) [stibogluconate] + C#Cc1cccc(Nc2ncnc3cc(OCCOC)c(OCCOC)cc23)c1 [erlotinib] (first compound 10 µM, partner dose 4 µM) | 46.8 | 71.8 | 62.6 | 80.7 | 125 | 65.7 | 58.5 | 99.4 | 60.3 | 73
O=C(O)c1ccc2c(c1)nc(Nc1cccc(Cl)c1)c1ccncc12 + CCCS(=O)(=O)Nc1ccc(F)c(C(=O)c2c[nH]c3ncc(Cl)cc23)c1F [PLX4720] (first compound 2 µM, partner dose 0.4 µM) | 43.4 | 73.7 | 69.5 | 64.6 | 65.5 | 49.2 | 76.8 | 73.3 | 66.9 | 35.2
O=C(Nc1cc(C(F)(F)F)cc(C(F)(F)F)c1)c1cc(Cl)ccc1O + CS(=O)(=O)CCNCc1ccc(-c2ccc3ncnc(Nc4ccc(OCc5cccc(F)c5)c(Cl)c4)c3c2)o1 [lapatinib] (first compound 0.08 µM, partner dose 4 µM) | 82 | 74.9 | 104 | 68 | 87.1 | 75 | 125 | 88.4 | 96.2 | 82.4
O=C(Nc1cc(C(F)(F)F)cc(C(F)(F)F)c1)c1cc(Cl)ccc1O + CC(=O)c1c(C)c2cnc(Nc3ccc(N4CCNCC4)cn3)nc2n(C2CCCC2)c1=O [palbociclib] (first compound 0.08 µM, partner dose 0.2 µM) | 35.9 | 66.7 | 64 | 89.8 | 82 | 62.3 | 50.2 | 40.2 | 61.8 | 61.3
Cn1nnc2c(C(N)=O)ncn2c1=O [temozolomide] + O=S(=O)(c1ccccc1)N(CC(F)(F)F)c1ccc(C(O)(C(F)(F)F)C(F)(F)F)cc1 [T0901317] (first compound 10 µM, partner dose 7 µM) | 36.3 | 101 | 63.1 | 64 | 90.9 | 62.3 | 98.8 | 61.5 | 81 | 85.5
Cc1cc(N2CCOCC2)cc2[nH]c(-c3c(NC[C@@H](O)c4cccc(Cl)c4)cc[nH]c3=O)nc12 + O=C(O)C(=O)Nc1sc2c(c1C(=O)O)CCNC2 [TCS401] (first compound 1 µM, partner dose 8.33333 µM) | 112 | 82.8 | 78.3 | 69.2 | 86 | 128 | 89.5 | 93.5 | 51.9 | 65
O=C(O)c1ccc2c(c1)nc(Nc1cccc(Cl)c1)c1ccncc12 + Cc1nc(Nc2ncc(C(=O)Nc3c(C)cccc3Cl)s2)cc(N2CCN(CCO)CC2)n1 [dasatanib] (first compound 2 µM, partner dose 0.02 µM) | 34.5 | 74.8 | 63.2 | 46.1 | 69.8 | 59.7 | 45 | 37.8 | 35.8 | 63.6
Cn1nnc2c(C(N)=O)ncn2c1=O [temozolomide] + COc1ccc2c(c1)CCC1C2CCC2(C)C(NCCCCCCN3C(=O)C=CC3=O)CCC12 [U73122] (first compound 10 µM, partner dose 2 µM) | 50.6 | 93.2 | 75.3 | 103 | 101 | 65.9 | 71 | 56.5 | 73.5 | 80.1
Cc1cc(N2CCOCC2)cc2[nH]c(-c3c(NC[C@@H](O)c4cccc(Cl)c4)cc[nH]c3=O)nc12 + Cn1cncc1[C@@](N)(c1ccc(Cl)cc1)c1ccc2c(c1)c(-c1cccc(Cl)c1)cc(=O)n2C [tipifarnib] (first compound 1 µM, partner dose 0.05 µM) | 52 | 66.5 | 89.4 | 71 | 89.2 | 73.9 | 61.4 | 59.8 | 54 | 59.5
O=C(Nc1cc(C(F)(F)F)cc(C(F)(F)F)c1)c1cc(Cl)ccc1O + CC(=O)O[C@@]12CO[C@@H]1C[C@H](O)[C@@]1(C)C(=O)[C@H](O)C3=C(C)[C@@H](OC(=O)[C@H](O)[C@@H](NC(=O)OC(C)(C)C)c4ccccc4)C[C@@](O)([C@@H](OC(=O)c4ccccc4)[C@H]21)C3(C)C [Docetaxel] (first compound 0.08 µM, partner dose 0.0005 µM) | 19 | 38.1 | 42 | 34.7 | 77.5 | 71.5 | 38.2 | 43.2 | 37.5 | 54.5
O=C(Nc1ccccc1)c1cc([N+](=O)[O-])ccc1Cl + CCN(CC)CCCCNc1ncc2cc(-c3cc(OC)cc(OC)c3)c(NC(=O)NC(C)(C)C)nc2n1 [PD173074] (first compound 10 µM, partner dose 0.5 µM) | 80.8 | 96.6 | 106 | 75.1 | 110 | 88.1 | 84.7 | 159 | 91.3 | 92.2
O=C(Nc1cc(C(F)(F)F)cc(C(F)(F)F)c1)c1cc(Cl)ccc1O + Cn1cnc2c(F)c(Nc3ccc(Br)cc3Cl)c(C(=O)NOCCO)cc21 [selumetinib] (first compound 0.08 µM, partner dose 0.075 µM) | 47 | 66.6 | 61.1 | 67.1 | 87.9 | 47.2 | 51.8 | 64.9 | 71.4 | 55.8
O=C(O)[C@@H]1[O][Sb](=[O])([O][Sb]2(=[O])[O][C@H]([C@H](O)CO)[C@H](O)[C@H](C(=O)O)[O]2)[O][C@H]([C@H](O)CO)[C@@H]1O (stereo not given in full) [stibogluconate] + CO[C@@H]1[C@H](N(C)C(=O)c2ccccc2)C[C@H]2O[C@]1(C)n1c3ccccc3c3c4c(c5c6ccccc6n2c5c31)C(=O)NC4 [Midostaurin] (first compound 10 µM, partner dose 0.4 µM) | 66 | 32.3 | 55.2 | 51.9 | 55.5 | 69.8 | 33.7 | 32.8 | 32.7 | 70.7
Cc1cc(N2CCOCC2)cc2[nH]c(-c3c(NC[C@@H](O)c4cccc(Cl)c4)cc[nH]c3=O)nc12 + O=S(=O)(c1ccccc1)N(CC(F)(F)F)c1ccc(C(O)(C(F)(F)F)C(F)(F)F)cc1 [T0901317] (first compound 1 µM, partner dose 7 µM) | 86.2 | 87.2 | 74.2 | 61.9 | 90.9 | 85.7 | 108 | 111 | 58.2 | 83.9
O=C(Nc1ccccc1)c1cc([N+](=O)[O-])ccc1Cl + Oc1nc(-c2ccc(C(F)(F)F)cc2)nc2c1CSCC2 [XAV939] (first compound 10 µM, partner dose 10 µM) | 67.7 | 87.8 | 99.7 | 97.4 | 78.3 | 61.2 | 84.3 | 81.3 | 66 | 97.6
O=C(O)c1ccc2c(c1)nc(Nc1cccc(Cl)c1)c1ccncc12 + O=C(CCCCCCC(=O)Nc1ccccc1)NO [vorinostat] (first compound 2 µM, partner dose 0.4 µM) | 50.3 | 58.4 | 69 | 79.1 | 56.2 | 66.5 | 63.9 | 55.7 | 83.1 | 66
O=C(O)c1ccc2c(c1)nc(Nc1cccc(Cl)c1)c1ccncc12 + CC(=O)c1c(C)c2cnc(Nc3ccc(N4CCNCC4)cn3)nc2n(C2CCCC2)c1=O [palbociclib] (first compound 2 µM, partner dose 0.2 µM) | 28.8 | 49.1 | 50.2 | 52.7 | 71.1 | 40.3 | 52.2 | 38.2 | 65.6 | 44.2
O=C(O)[C@@H]1[O][Sb](=[O])([O][Sb]2(=[O])[O][C@H]([C@H](O)CO)[C@H](O)[C@H](C(=O)O)[O]2)[O][C@H]([C@H](O)CO)[C@@H]1O (stereo not given in full) [stibogluconate] + Cn1cncc1[C@@](N)(c1ccc(Cl)cc1)c1ccc2c(c1)c(-c1cccc(Cl)c1)cc(=O)n2C [tipifarnib] (first compound 10 µM, partner dose 0.05 µM) | 79.9 | 80 | 84.8 | 71 | 107 | 82.1 | 80.5 | 68 | 113 | 85.8
O=C(O)c1ccc2c(c1)nc(Nc1cccc(Cl)c1)c1ccncc12 + CN(NC(=O)CC(=O)NN(C)C(=S)c1ccccc1)C(=S)c1ccccc1 [STA4783] (first compound 2 µM, partner dose 0.03 µM) | 40.4 | 72 | 90.3 | 95.5 | 82.9 | 49.1 | 30.7 | 90.7 | 38.9 | 103
O=C(O)[C@@H]1[O][Sb](=[O])([O][Sb]2(=[O])[O][C@H]([C@H](O)CO)[C@H](O)[C@H](C(=O)O)[O]2)[O][C@H]([C@H](O)CO)[C@@H]1O (stereo not given in full) [stibogluconate] + O=C(Nc1cccc(Cl)c1)Nc1ncc(CCNc2ncnc3ccsc23)s1 [SNS314] (first compound 10 µM, partner dose 0.004 µM) | 44.3 | 82.1 | 81.1 | 88.5 | 66.1 | 82.3 | 39.1 | 40.1 | 73.1 | 64
